Each structure is given as a SMILES string. Records with an inconclusive call do not appear. Calls come from the whole dose curve; as a rule, active = well fitted curve in the direction sought with a large enough effect in the repeat runs; inconclusive = weak or mixed curves; inactive = no such curve, though single readings can be large; an effect the other way counts as inactive or inconclusive. Some compounds were tested as several samples or in several runs, with calls that do not always agree. A number of entries come with more than one value. The other results are left out here. The source may hold further records. Values given together are repeats across runs, samples, wells, individuals or studies. What stands in brackets tells the records apart. Letters count within one entry.
Potency is the fitted concentration of half-maximal effect.

The nature of the first test: qHTS assay to identify small molecule antagonists of the peroxisome proliferator-activated receptor gamma (PPARg) signaling pathway - cell viability counter screen (AID 743194). Note: nearly all actives have a fitted effect of over 55% in size. To be noted: PPARg-bla HEK293H viability, CellTiter-Glo luminescence, 17 h, co-treated with 50 nM rosiglitazone; series mostly up to 62.6 µM. A digest of the protocol:
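PPARg-UAS-bla HEK293H cells were plated, rested 5 h at 37 C, then treated with compounds plus rosiglitazone (50 nM final) for 17 h at 37 C; viability was then read by CellTiter-Glo luminescence after 30 min at room temperature.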
(In qHTS, concentration-response curves come from the screen itself.)
As to `Oc1ccc(Cl)cc1Cc1ccccc1`, the Potency entry is “active: 49 µM [sample A] and inactive [sample B]”.

For the compound `CC(C)(c1ccccc1)c1ccc(O)cc1`, the Potency entry is “active: 54.5 µM [sample A] and inactive [sample B]”.

As to `CCOP(=O)(O)OCC` (tested in a mixture with another compound), the Potency entry was “inactive [sample A] and active: 6.86 µM [sample B]”.

Regarding `Cc1ccc(N=CN(C)C=Nc2ccc(C)cc2C)c(C)c1`, the Potency entry was “active: 43.8 µM [sample A] and inactive [sample B]”.

Another test in a line: qHTS assay to identify small molecule agonists of the constitutive androstane receptor (CAR) signaling pathway - cell viability counter screen (AID 1224836). Note: nearly all actives have a fitted effect of over 45% in size. To be noted: HepG2-CYP2B6-hCAR viability, CellTiter-Fluor, 23 h, PK11195 added to every well; series mostly up to 92.4 µM. Put shortly:
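Double-stable HepG2 hepatoma cells (hCAR plus CYP2B6-2.2kb) are treated for 23 h at 37 C with test compounds in 15-point concentration series. PK11195 at 0.75 uM final is co-added. Cell viability is quantified by CellTiter-Fluor.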
`N#Cc1nn(-c2c(Cl)cc(C(F)(F)F)cc2Cl)c(N)c1S(=O)C(F)(F)F` (stereo not drawn): the Potency result was “active: 34.6 µM [sample A] and inactive [sample B]”.

Turning to `CC(C)Nc1ccc(Nc2ccccc2)cc1`, the Potency entry is “active: 68.3 µM [sample A] and inactive [sample B]”.

Take `CCOP(=O)(O)OCC` (tested in a mixture with another compound): the Potency entry is “inactive [sample A] and active: 24.1 µM [sample B]”.

The nature of the next test: A CellTox Green Cytotoxicity Assay to monitor cytotoxicity in HEK293 cells - 24 hour (AID 1224875). Note: nearly all actives have a fitted effect of over 45% in size. To be noted: CellTox Green fluorescence; series mostly up to 76.8 µM. A digest of the protocol: (§1)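 HEK293 cells premixed with CellTox Green dye were seeded at 600 cells/well and left 5 h at 37 C/5% CO2 before pin transfer of 23 nL compound in DMSO. Fluorescence from dye bound to dead-cell DNA was read during 40 h treatment.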
As to `OC(c1ccc(Cl)cc1)(c1cncnc1)c1ccccc1Cl` (stereo not drawn), the Potency result was “active: 35.3 µM [sample A] and inactive [sample B]”.

For the compound `CCCCCCCCCc1ccc(O)cc1`, the Potency result was “active: 39.3 µM [sample A] and inactive [sample B]”.

As to `C[C@]12CCC(=O)C=C1CC[C@@H]1[C@@H]2CC[C@@]2(C)[C@H]1CC[C@]2(C)O`, the Potency result was “active: 44 µM [sample A] and inactive [sample B]”.

For the compound `CCCCOCC1CO1` (stereo not drawn), the Potency result is “inactive [sample A] and active: 19.5 µM [sample B]”.

As for `CCOP(=O)(O)OCC` (tested in a mixture with another compound), the Potency entry was “inactive [sample A] and active: 34.4 µM [sample B]”.

As for `CCCCCCCCCCCCCl`, the Potency entry is “inactive [sample A] and active: 19.5 µM [sample B]”.

The next test is described as follows: A CellTox Green Cytotoxicity Assay to monitor cytotoxicity in HEK293 cells - 16 hour (AID 1224888). Note: nearly all actives have a fitted effect of over 35% in size. To be noted: CellTox Green fluorescence; series mostly up to 76.8 µM. A digest of the protocol: as §1
Consider `OC(c1ccc(Cl)cc1)(c1cncnc1)c1ccccc1Cl` (stereo not drawn), for which the Potency entry was “active: 44.4 µM [sample A] and inactive [sample B]”.

On to `C[C@]12CCC(=O)C=C1CC[C@@H]1[C@@H]2CC[C@@]2(C)[C@H]1CC[C@]2(C)O`, for which the Potency entry is “active: 44 µM [sample A] and inactive [sample B]”.

Consider `CCCCOCC1CO1` (stereo not drawn), for which the Potency result is “inactive [sample A] and active: 19.5 µM [sample B]”.

With `CCOP(=O)(O)OCC` (tested in a mixture with another compound), the Potency entry was “inactive [sample A] and active: 48.6 µM [sample B]”.

For `CCCCCCCCCCCCCl`, the Potency result is “inactive [sample A] and active: 19.5 µM [sample B]”.

The values above are taken from PubChem BioAssay (Tox21).
